From patent US10544092B2 (priority 2015, dated 2020)

Assays:
[1] = system: bacterial leaf spot of cucumber; details: in vivo
[2] = system: bacterial leaf streak of rice; type: in vivo, Xanthomonas oryzae pv. oryzicola; details: dosage 600 mg/L, 10 days
bacterial blight of rice = type: in vivo; details: dosage 600 mg/L, 10 days
[3] = system: bacterial leaf spot of tomato; type: in vivo; details: dosage 400 mg/L, 10 days

N#CC(C#N)=NOCc1cccc(Br)c1 [Compound 9]
100%: control against bacterial leaf spot of cucumber [1] | control against bacterial leaf streak of rice [2] | control against bacterial blight of rice (bacterial blight of rice) | control against bacterial leaf spot of tomato [3]

COc1ccc(CON=C(C#N)C#N)cc1 [Compound 19]
100%: control against bacterial leaf spot of cucumber [1] | control against bacterial leaf streak of rice [2] | control against bacterial blight of rice (bacterial blight of rice) | control against bacterial leaf spot of tomato [3]

N#CC(C#N)=NOCc1ccc([N+](=O)[O-])cc1 [Compound 34]
100%: control against bacterial leaf spot of cucumber [1] | control against bacterial leaf streak of rice [2] | control against bacterial blight of rice (bacterial blight of rice) | control against bacterial leaf spot of tomato [3]

N#CC(C#N)=NOCc1cccc(C#N)c1 [Compound 36]
100%: control against bacterial leaf spot of tomato [3]

N#CC(C#N)=NOCc1ccc(C#N)cc1 [Compound 37]
100%: control against bacterial leaf spot of cucumber [1] | control against bacterial leaf streak of rice [2] | control against bacterial blight of rice (bacterial blight of rice) | control against bacterial leaf spot of tomato [3]

N#CC(C#N)=NOCc1ccc(Cl)c(Cl)c1 [Compound 59]
100%: control against bacterial leaf spot of cucumber [1] | control against bacterial leaf streak of rice [2] | control against bacterial blight of rice (bacterial blight of rice) | control against bacterial leaf spot of tomato [3]

N#CC(C#N)=NOCc1ccc(F)c(F)c1 [Compound 83]
100%: control against bacterial leaf spot of cucumber [1] | control against bacterial leaf streak of rice [2] | control against bacterial blight of rice (bacterial blight of rice) | control against bacterial leaf spot of tomato [3]
